Reference: PubChem BioAssay AID1460 (National Center for Advancing Translational Sciences (NCATS), 2008)
Values joined by “and” are separate entries in the source; they are usually repeats but may differ in a detail not shown here. Identical values can stand only once. About 5,800 (2.1%) of roughly 270,000 compounds were called active. The shares of active, inactive and inconclusive entries below differ from those in the screen. The call rests on the fitted dose curve; in most records, active means well fitted inhibition curve with a large enough effect; inconclusive means small, poorly fitted or top-dose-only effect; inactive means flat fitted curve, though single readings scatter. Where the call is inconclusive, the potency comes from a doubtful curve fit.

Molecular target: Microtubule-associated protein tau (Homo sapiens) (UniProt P10636)
Sequence of UniProt P10636 (P10636 whole entry, looked up): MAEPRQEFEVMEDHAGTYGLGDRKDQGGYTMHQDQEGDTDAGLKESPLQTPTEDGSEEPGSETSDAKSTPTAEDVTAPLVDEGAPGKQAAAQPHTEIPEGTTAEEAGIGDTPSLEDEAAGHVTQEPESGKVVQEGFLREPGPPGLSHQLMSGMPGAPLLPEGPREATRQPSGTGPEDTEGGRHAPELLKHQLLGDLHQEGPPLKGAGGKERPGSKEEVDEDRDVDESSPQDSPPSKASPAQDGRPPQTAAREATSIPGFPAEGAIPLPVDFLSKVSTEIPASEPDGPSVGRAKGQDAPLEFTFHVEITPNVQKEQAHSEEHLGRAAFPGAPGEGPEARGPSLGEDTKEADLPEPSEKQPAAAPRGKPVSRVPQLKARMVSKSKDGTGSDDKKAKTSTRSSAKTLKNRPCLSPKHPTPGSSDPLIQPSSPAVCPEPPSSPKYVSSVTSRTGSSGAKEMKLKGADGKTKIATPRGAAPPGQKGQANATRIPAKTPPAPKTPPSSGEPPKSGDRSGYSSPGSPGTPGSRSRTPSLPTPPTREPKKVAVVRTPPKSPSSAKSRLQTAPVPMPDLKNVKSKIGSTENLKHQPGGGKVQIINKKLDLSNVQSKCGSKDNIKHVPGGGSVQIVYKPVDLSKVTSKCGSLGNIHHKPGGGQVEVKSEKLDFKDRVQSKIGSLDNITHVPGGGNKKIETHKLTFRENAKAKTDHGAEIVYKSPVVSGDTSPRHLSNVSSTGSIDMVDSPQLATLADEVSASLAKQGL
Experiment: qHTS for Inhibitors of Tau Fibril Formation, Thioflavin T Binding; further: nearly all actives have a fitted effect of over 55% in size
Conditions: recombinant tau K18 P301L (four-repeat tau fragment), heparin-induced fibrillization, ThT fluorescence; series mostly up to 57.4 µM; activity, negative = inhibition: at the top concentration
Procedure, shortened: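 K18 P301L tau (15 uM + 0.24 uM Alexa 594-tagged), heparin 20 uM, NaOAc pH 7, 6 h 37 C; ThT 30 uM, 1 h RT, ex 450/em 510 nm.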
On the % scale 0 is the no-effect control and ±100 the full control effect; potency means the concentration at half of the fitted maximal effect; tags describe the fitted curve by direction and shape.

Structure (SMILES)	Potency	activity, negative = inhibition
O=C(Nc1ccc(COc2ccccc2)cc1)Oc1ccccc1N1CCOCC1	inconclusive: 4.47 µM [inhibitor, full curve]	
O=C(Nc1ccccc1)c1cccn(Cc2ccccc2)c1=O	inconclusive: 31.6 µM [inhibitor, single point]	
Cc1ccc(/C=C2/C(=O)NC(=O)N(C)C2=O)cc1	inconclusive: 7.94 µM [inhibitor, full curve]	
CC1=C2C(=COC(C)C2C)C(=O)C(C(=O)O)=C1O (stereo not drawn)	inconclusive: 35.5 µM [inhibitor, single point]	
C[C@@H](C(=O)O)c1ccc(-c2ccccc2)c(F)c1	inconclusive: 12.6 µM [inhibitor, partial curve]	
Cc1ccc(/C=C2/C(=O)NC(=O)N(CCc3ccc(F)cc3)C2=O)s1	inconclusive: 5.01 µM [inhibitor, partial curve]	
CC(=O)c1cccc(OCC(O)CN2CC=C(c3ccccc3)CC2)c1 (stereo not drawn)	inconclusive: 15.8 µM [inhibitor, partial curve]	
Cc1ccccc1-n1c(O)c(C=Nc2ccc(N(C)C)cc2)c(=O)[nH]c1=O	active: 28.2 µM	
CN1CC=C2C(C#N)=C(N)C(C#N)(C#N)C(c3ccncc3)C2C1 (stereo not drawn)	inconclusive: 22.4 µM [inhibitor, partial curve]	
CCOC(=O)c1sc2ccccc2c1NC(=O)c1coc2ccccc2c1=O	inconclusive: 17.8 µM [inhibitor, single point]	
CN1c2ccc([N+](=O)[O-])cc2CC2(C(=O)NC(=O)N(c3ccccc3)C2=O)C1c1ccccc1 (stereo not drawn)	inconclusive: 22.4 µM [inhibitor, partial curve]	
C[C@@]12CCC(Cl)C[C@H]1CCC1C2CC[C@]2(C)C(=O)CCC12 (stereo partly drawn)		inactive: -9.17%
Cc1ccc(-n2c(C)cc(/C=C3\C(=O)NC(=O)N(C)C3=O)c2C)cc1C	inconclusive: 39.8 µM [inhibitor, single point]	
O=c1[nH]c(=O)n(CCc2ccc(F)cc2)c(O)c1/C=N/N1CCCCC1	inconclusive: 20 µM [inhibitor, partial curve]	
COc1cc(C=C2C(=O)NC(=O)NC2=O)cc(OC)c1OC	inconclusive: 22.4 µM [inhibitor, partial curve, poor fit]	
COC(=O)C1(O)CC2OC1(C)n1c3ccccc3c3c4c(c5c6ccccc6n2c5c31)C(=O)NC4 (stereo not drawn)	inconclusive: 3.16 µM [inhibitor, partial curve, poor fit]	
CC1CC[C@@]2(OC1)O[C@@H]1[C@@H](O)[C@H]3C4CC[C@H]5C[C@@H](O[C@@H]6O[C@H](CO)[C@H](O[C@@H]7O[C@H](CO)[C@@H](O)[C@H](O[C@@H]8OC[C@@H](O)[C@H](O)[C@H]8O)[C@H]7O[C@@H]7O[C@H](CO)[C@@H](O)[C@H](O[C@@H]8O[C@H](CO)[C@@H](O)[C@H](O)[C@H]8O)[C@H]7O)[C@H](O)[C@H]6O)[C@H](O)C[C@]5(C)C4CC[C@]3(C)[C@H]1[C@@H]2C (stereo partly drawn)		inactive: -8.72%
O=C(Nc1nccs1)c1c(O)c2c(n(Cc3ccco3)c1=O)CCCC2	inconclusive: 3.16 µM [inhibitor, partial curve, poor fit]	
CCCn1c(=O)c2[nH]c(C3CCCC3)nc2n(CCCOC(=O)c2ccc(S(=O)(=O)F)cc2)c1=O		inactive: -13.2%
CN1C2CCC1CC(OC(c1ccccc1)c1ccc(Cl)cc1)C2 (stereo not drawn)	inactive and inconclusive: 14.1 µM [inhibitor, partial curve]	
N#Cc1cc2c(nc1SCC(=O)Nc1ccc(Cl)c(C(F)(F)F)c1)C1CCN2CC1		inactive: -2.96%

Structure (SMILES)	Potency	activity, negative = inhibition
COc1ccc(-c2nnc3n2N(C(C)=O)C(c2ccc(Cl)c(Cl)c2)=C(C(C)=O)S3)cc1	inconclusive: 1.78 µM [inhibitor, full curve, poor fit]	
O=C1NO[C@H]2[C@@H]1CN[C@@H]2C(=O)O		inactive: -5.01%
COc1cccc(C2=CC(c3cc(Br)ccc3F)n3nnnc3N2)c1 (stereo not drawn)	inconclusive: 44.7 µM [inhibitor, single point]	
O=C1Nc2ccccc2/C1=C/c1cnc[nH]1	inconclusive: 14.1 µM [inhibitor, partial curve]	
COc1ccc(NC(=O)c2cccn(Cc3ccc(Cl)cc3)c2=O)c(OC)c1	inconclusive: 6.31 µM [inhibitor, full curve]	
Cc1cc(C)c(C(=O)CN2CCOCC2)c(C)c1	inconclusive: 31.6 µM [inhibitor, single point]	
Cc1ccccc1NC(=O)CSc1nc2ccccc2c2nc(CCn3c(C)nc4ccccc43)nn12	inconclusive: 14.1 µM [inhibitor, partial curve]	
O=C(OCC(=O)c1ccc([N+](=O)[O-])cc1)/C(=C/c1ccc(Cl)cc1)NC(=O)c1ccccc1	active: 28.2 µM	
O=c1[nH]c(O)c(/C=C2\C=NN=C2c2ccccc2)c(=O)[nH]1	inconclusive: 22.4 µM [inhibitor, partial curve]	
CCOc1ccc(-n2c(/C=C/c3ccccc3)nc3ccccc3c2=O)cc1		inactive: -0.191%
Oc1ccc2c3c1OC1C(O)CC[C@]4(O)C(C2)N(CC2CCC2)CC[C@]314 (stereo partly drawn)		inactive: -3.53%
CCCCC/C=C\C/C=C\C/C=C\C=C\[C@H](CCCC(=O)O)OO	inactive	
CN1C(=O)C(C2c3ccccc3C(=O)N2Cc2ccccc2)C(=O)N(C)C1=O (stereo not drawn)	inconclusive: 39.8 µM [inhibitor, single point]	
CCN(CC)C(=O)c1ccc(NC(=O)CSc2nnnn2-c2cc(OC)ccc2OC)cc1		inactive: -10.5%
CSc1ccc(C(c2c(O)c3ccccc3oc2=O)c2c(C)n(C)n(-c3ccccc3)c2=O)cc1 (stereo not drawn)	inconclusive: 11.2 µM [inhibitor, partial curve]	
Cc1ccc(-c2nc3ccccc3c(=O)n2-c2cc(C)ccn2)cc1	inconclusive: 14.1 µM [inhibitor, partial curve]	
CCCCCSc1cc(O)c(C(CNC)C(C)C)cc1OC (stereo not drawn)		inactive: -5.79%
Cc1cc(C=C2C(=O)NC(=S)NC2=O)c(C)n1C1CCCC1	active: 15.8 µM	
O=CC1=C(N2CCOCC2)/C(=C\c2ccccc2)CC1	inconclusive: 22.4 µM [inhibitor, partial curve]	
CSCCOC(=O)COc1ccc(/C=N/NC(=O)c2c(Cl)cnn2C)cc1	inconclusive: 5.01 µM [inhibitor, partial curve, poor fit]	
O=C1C=C2C=CC3C[C@@]2(O1)C1CCCCN31 (stereo partly drawn)	inconclusive: 35.5 µM [inhibitor, single point]	

Structure (SMILES)	Potency	activity, negative = inhibition
Cc1cccc(OP(N)(=O)Oc2cccc(C)c2C)c1C	inconclusive: 17.8 µM [inhibitor, single point]	
Cn1cccc1/C=C1\C(=O)NC(=O)N(Cc2ccco2)C1=O	inconclusive: 22.4 µM [inhibitor, partial curve]	
CC(C)C(=O)NC(Oc1ccccc1Cl)C(Cl)(Cl)Cl (stereo not drawn)	inconclusive: 14.1 µM [inhibitor, partial curve, poor fit]	
O=C1C=CC(=O)C(Cl)=C1	active: 11.2 µM	
CN1C(=O)C(=Cc2ccccc2Oc2ccc(Cl)c(F)c2)C(=O)N(C)C1=O	inconclusive: 28.2 µM [inhibitor, single point]	
O=C(N=Nc1c(O)n(C2OC(=O)c3ccccc32)c2ccccc12)c1ccco1 (stereo not drawn)	inconclusive: 10 µM [inhibitor, partial curve]	
O=C1NC(=S)NC(=O)C1C/C=C/c1ccccc1	inconclusive: 39.8 µM [inhibitor, single point]	
CN(C)C(=O)Oc1ccc(-c2cn3cc(C(F)(F)F)ccc3n2)cc1	inconclusive: 1.78 µM [inhibitor, full curve, poor fit]	
COc1ccccc1N=Nc1c(O)[nH]c(=S)[nH]c1=O	active: 12.6 µM	
O=C(Cc1cc(=O)[nH][nH]1)N/N=C/c1cccc2ccccc12	active: 3.16 µM	
O=c1c2ccccc2nc(-c2ccc(-c3ccccc3)cc2)n1-c1ccncc1	inconclusive: 44.7 µM [inhibitor, partial curve, poor fit]	
Cc1cccc(N2C(=O)/C(=C/c3ccc(CN(CCC#N)S(C)(=O)=O)o3)C(=O)NC2=S)c1	active: 25.1 µM	
CCOP(=O)(Cc1cc(C(C)=O)c(C)o1)OCC	inconclusive: 14.1 µM [inhibitor, partial curve]	
CCn1c(C)cc(/C=C2\C(=O)NC(=O)N(c3ccccc3C)C2=O)c1C	inconclusive: 15.8 µM [inhibitor, single point]	
CCNCCNc1ccc([N+](=O)[O-])c2cccnc12	inconclusive: 25.1 µM [inhibitor, partial curve]	
COC(=O)[C@]1(C)CC[C@@]2(C)CC[C@@]3(C)C4=CC=C5C(=CC(=O)C(O)=C5C)[C@@]4(C)CC[C@@]3(C)C2C1 (stereo partly drawn)	active: 28.2 µM	
CCOC(=O)c1cc(CC)sc1/N=C/c1c(O)[nH]c(=S)[nH]c1=O		inactive: -16.9%
O=C(c1ccc2c(=O)n(Cc3ccc4c(c3)OCO4)c(=S)[nH]c2c1)N1CCC2(CC1)OCCO2		inactive: 5.57%
Cc1ccc2c(c1)CC1(CN2C)C(=O)NC(=O)N(c2cc(C)ccc2C)C1=O (stereo not drawn)	inconclusive: 25.1 µM [inhibitor, partial curve]	
COc1cc(/C=N/Nc2ccc(S(N)(=O)=O)cc2)cc(OC)c1OC	inconclusive: 35.5 µM [inhibitor, single point]	
Cc1cc(/C=C2/C(=O)NC(=O)N(Cc3ccco3)C2=O)c(C)n1-c1ccc(C(=O)O)cc1	inconclusive: 39.8 µM [inhibitor, single point]	
